Patent US12145987B2, “Method for depleting cytotoxic T cells using an anti-LAG-3 antibody composition” (Daiichi Sankyo Company, Limited, priority 2017, dated 2024)

Key:
[1] = tested on: EAE (experimental autoimmune encephalomyelitis) model; experiment: EAE (experimental autoimmune encephalomyelitis) model; assay type: in vivo, human LAG-3/human FcγRIIIA double transgenic mice; conditions: 30 mg/kg intravenous on Days 0 and 7
[2] = tested on: perforin positive CD8 T cells; experiment: Perforin positive CD8 T cell number after CD3/CD28 stimulation of human PBMCs for 4 days, flow cytometry; assay type: cell-based; conditions: hLA212_H4/L2 10 μg/mL, tacrolimus 10 nM, PBMCs of two donors
Protocol: (§1) PBMCs were separated from human peripheral blood by Ficoll centrifugation and added to a 96-well U-bottom microplate in an amount of 4×10^5 cells/well. Human IL-2 (PeproTech, Inc., final concentration: 100 ng/mL) and Dynabeads Human T-Activator CD3/CD28 (Life Technologies Corp., 4×105 beads/well) were added thereto, and T cells were activated by culture for 4 days. The obtained cells were recovered, suspended in a FACS buffer (PBS, 0.1% BSA, and 0.1% sodium azide), and then reacted with Human BD Fc Block (Becton, Dickinson and Company) at room temperature for 10 minutes. Subsequently, the cell surface was stained by reaction at 4° C. for 30 minutes with fluorescently labeled antibodies diluted with a FACS buffer containing a LIVE/DEAD Fixable Dead Cell Stain Kit-near-IR fluorescent reactive dye (manufactured by Invitrogen Corp.), followed by washing with a FACS buffer. […] The data was analyzed using FlowJo (manufactured by Tree Star Inc). After removal of the LIVE/DEAD Fixable Dead Cell Stain Kit-near-IR fluorescent reactive dye-positive dead cells by gating, only the living cells were analyzed by further gating CD3 positive and CD8 positive CD8 T cells. […]

LAG-3 positive cells = experiment: In vivo LAG-3 positive cell depletion after Con A administration; set-up: species or system human LAG-3/human FcγRIIIA double transgenic mice; conditions: 30 mg/kg intraperitoneal immediately before Con A 15 mg/kg i.v.; blood 2 days after; vs antibody non-administration group
Protocol: Using the human LAG-3/human FcγRIIIA double transgenic mice of Example 10, it was investigated whether the obtained humanized anti-human LAG-3 antibody hLA212_H4/L2 has the activity of depleting LAG-3 positive cells in vivo. Immediately after the humanized anti-human LAG-3 antibody hLA212_H4/L2 (30 mg/kg) or a solvent was intraperitoneally administered to the human LAG-3/human FcγRIIIA double transgenic mice, Con A (manufactured by Sigma-Aldrich) having polyclonal T cell activating action was intravenously administered at a dose of 15 mg/kg. Red blood cells were hemolyzed from the blood collected 2 days thereafter with PharmLyse (manufactured by Becton, Dickinson and Company) to obtain white blood cells, and the white blood cells were used for flow cytometry. […] The data was analyzed using FlowJo (manufactured by Tree Star Inc). After removal of the LIVE/DEAD Fixable Dead Cell Stain Kit-near-IR fluorescent reactive dye-positive dead cells by gating, the living cells were analyzed.

[3] = tested on: 293T-lacZ cells not expressing human LAG-3; experiment: In vitro ADCC assay on target cells without human LAG-3 (specificity); assay type: cell-based; conditions: target 293T-lacZ cells without human LAG-3 gene, effector human PBMCs
Protocol: The ADCC activity of the purified rat anti-human LAG-3 antibodies rLA204, rLA212, rLA225, rLA869, and rLA1264 was investigated by the following method. To a 96-well U-bottom microplate containing 50 μL/well of the antibody solution, was added 50 μL/well of the target cells (which will be hereinafter referred to as 293T-lacZ/hLAG-3 cells) of Example 1)-5-1, followed by standing at 4° C. for 30 minutes. Then, 75 μL/well of effector cells prepared as in Example 1)-5-2 (which was however suspended to 2×10^6 cells/mL) was added thereto, followed by centrifugation at room temperature at 1200 rpm for 5 minutes, and thereafter the cells were cultured overnight under conditions of 37° C. and 5% CO2. On the next day, 50 μl of the supernatant was recovered into a black plate (manufactured by Corning Inc). A solution of β-Glo assay system (manufactured by Promega Corp.) was added thereto at 50 μl/well. The luminescence intensity was measured using a plate reader (ENVISION; manufactured by PerkinElmer, Inc). The percentage of cells lysed by ADCC activity was calculated according to the following formula. Percentage of cells lysed (%)=(A−B)/(C−B)×100 • A: Count of each sample well • B: Average of spontaneous release (wells without antibody added) counts (n=3)
The in vitro ADCC activity of the humanized anti-human LAG-3 antibody hLA212_H4/L2 was evaluated by the method described in Example 7)-2.

[4] = tested on: granzyme positive CD8 T cells; experiment: Granzyme positive CD8 T cell number after CD3/CD28 stimulation of human PBMCs; assay type: cell-based; conditions: data not shown
Protocol: as §1

LAG-3 of rodents = experiment: Cross-reactivity with rodent LAG-3; assay type: binding

B1: hLA212_H4/L2: defucosylated humanized antibody; heavy chain positions 20 to 470 of SEQ ID No: 30, light chain positions 21 to 234 of SEQ ID No: 34 (antibody)
heavy: EVQLVESGGGLVQPGGSLRLSCAASGFTYRSYVMAWVRQAPGKGLEWVASISTGGGNTYYRDSVKGRFTISRDNAKNTLYLQMDSLRAEDTAVYYCAEDMSNSGYGLFDYWGQGTLVTVSSASTKGPSVFPLAPSSKSTSGGTAALGCLVKDYFPEPVTVSWNSGALTSGVHTFPAVLQSSGLYSLSSVVTVPSSSLGTQTYICNVNHKPSNTKVDKRV[left out - human IgG1 Fc]
light: DIQMTQSPSSLSASVGDRVTITCKAGQNVDNNIAWYQQKPGQSPKLLIYYASNRNTGVPSRFSGSGYGTDFTLTISSLQPEDFATYYCQRISNSPYTFGQGTKVEIKRTVAAPSVFIFPPSDEQLKSGTASVVCLLNNFYPREAKVQWKVDNALQSGNSQESVTEQDSKDSTYSLSSTLTLSKADYEKHKVYACEVTHQGLSSPVTKSFNRGEC
**Q.** With B1 as the molecule, how does the “weight loss with EAE progression” value [1] read?
**A.** suppressed

**Q.** And the “average of the EAE clinical scores as compared with the control antibody-administered group” value ([1]; during the observation period)?
**A.** ≤ 50%

**Q.** What about the “number of perforin positive CD8 T cells, compared with the control” value [2] of the same molecule?
**A.** evidently reduced

**Q.** What about the “human LAG-3 positivity in peripheral blood T cells” value (LAG-3 positive cells) of the same molecule?
**A.** decreased in a remarkable manner

**Q.** And the “ADCC activity on 293T-lacZ cells not expressing human LAG-3” value [3]?
**A.** no ADCC activity

**Q.** And the “number of granzyme positive CD8 T cells” value [4]?
**A.** reduced

**Q.** What about the “cross-reaction with LAG-3 of rodents” value (LAG-3 of rodents) of the same molecule?
**A.** does not cross-react
